Laboratory results taken from article PMC9911399, “Two distinct binding modes provide the RNA-binding protein RbFox with extraordinary sequence specificity”.
Where a chain is given by its changes, count along the chain named. Some of the results follow.

T1: RBFOX1 RRM (Homo sapiens, UniProt Q9NWB1 109-208)
T1 sequence: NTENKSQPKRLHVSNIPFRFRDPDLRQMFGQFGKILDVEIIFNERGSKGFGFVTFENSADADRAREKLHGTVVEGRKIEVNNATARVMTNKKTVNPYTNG

B1: ACCUGUC (DNA:RNA)
RNA: GGGAGACCGGAAUUCAGAUUGUCCACCUGUCUUAAAUCCCGUCGUAGCCACCA
DNA 1: CAATCTGAATTCCGGTCTCCC
DNA 2: TGGTGGCTACGACGGGATT
B2: CAUAUGG (DNA:RNA)
RNA: GGGAGACCGGAAUUCAGAUUGUCCCAUAUGGUUAAAUCCCGUCGUAGCCACCA
DNA 1: CAATCTGAATTCCGGTCTCCC
DNA 2: TGGTGGCTACGACGGGATT
B3: AGACAAC (DNA:RNA)
RNA: B1 RNA with C26G, C27A, U28C, G29A, U30A
DNA 1: CAATCTGAATTCCGGTCTCCC
DNA 2: TGGTGGCTACGACGGGATT
B4: UCAGUCC (DNA:RNA)
RNA: B1 RNA with A25U, C27A, U28G, G29U, U30C
DNA 1: CAATCTGAATTCCGGTCTCCC
DNA 2: TGGTGGCTACGACGGGATT
B5: GAAUUUC (DNA:RNA)
RNA: B1 RNA with A25G, C26A, C27A, G29U
DNA 1: CAATCTGAATTCCGGTCTCCC
DNA 2: TGGTGGCTACGACGGGATT
B6: GUCCGAA (DNA:RNA)
RNA: B1 RNA with A25G, C26U, U28C, U30A, C31A
DNA 1: CAATCTGAATTCCGGTCTCCC
DNA 2: TGGTGGCTACGACGGGATT
B7: CGCCUUA (DNA:RNA)
RNA: B1 RNA with A25C, C26G, U28C, G29U, C31A
DNA 1: CAATCTGAATTCCGGTCTCCC
DNA 2: TGGTGGCTACGACGGGATT
B8: CGAGUCA (DNA:RNA)
RNA: B2 RNA with A26G, U27A, A28G, G30C, G31A
DNA 1: CAATCTGAATTCCGGTCTCCC
DNA 2: TGGTGGCTACGACGGGATT
B9: CAUCCUA (DNA:RNA)
RNA: B2 RNA with A28C, U29C, G30U, G31A
DNA 1: CAATCTGAATTCCGGTCTCCC
DNA 2: TGGTGGCTACGACGGGATT
B10: CCGACCG (DNA:RNA)
RNA: B2 RNA with A26C, U27G, U29C, G30C
DNA 1: CAATCTGAATTCCGGTCTCCC
DNA 2: TGGTGGCTACGACGGGATT
B11: AGAACAA (DNA:RNA)
RNA: B1 RNA with C26G, C27A, U28A, G29C, U30A, C31A
DNA 1: CAATCTGAATTCCGGTCTCCC
DNA 2: TGGTGGCTACGACGGGATT
B12: CGGGGUG (DNA:RNA)
RNA: B1 RNA with A25C, C26G, C27G, U28G, C31G
DNA 1: CAATCTGAATTCCGGTCTCCC
DNA 2: TGGTGGCTACGACGGGATT
B13: CGUACCG (DNA:RNA)
RNA: B2 RNA with A26G, U29C, G30C
DNA 1: CAATCTGAATTCCGGTCTCCC
DNA 2: TGGTGGCTACGACGGGATT
B14: AGGCUUU (DNA:RNA)
RNA: B1 RNA with C26G, C27G, U28C, G29U, C31U
DNA 1: CAATCTGAATTCCGGTCTCCC
DNA 2: TGGTGGCTACGACGGGATT
B15: CAGCCUU (DNA:RNA)
RNA: B2 RNA with U27G, A28C, U29C, G30U, G31U
DNA 1: CAATCTGAATTCCGGTCTCCC
DNA 2: TGGTGGCTACGACGGGATT
B16: GUGGAGA (DNA:RNA)
RNA: B2 RNA with C25G, A26U, U27G, A28G, U29A, G31A
DNA 1: CAATCTGAATTCCGGTCTCCC
DNA 2: TGGTGGCTACGACGGGATT
B17: ACUACCA (DNA:RNA)
RNA: B1 RNA with C27U, U28A, G29C, U30C, C31A
DNA 1: CAATCTGAATTCCGGTCTCCC
DNA 2: TGGTGGCTACGACGGGATT
B18: UAUCGAA (DNA:RNA)
RNA: B2 RNA with C25U, A28C, U29G, G30A, G31A
DNA 1: CAATCTGAATTCCGGTCTCCC
DNA 2: TGGTGGCTACGACGGGATT
B19: CCCAUUG (DNA:RNA)
RNA: B2 RNA with A26C, U27C, G30U
DNA 1: CAATCTGAATTCCGGTCTCCC
DNA 2: TGGTGGCTACGACGGGATT
B20: CAGAAGA (DNA:RNA)
RNA: B2 RNA with U27G, U29A, G31A
DNA 1: CAATCTGAATTCCGGTCTCCC
DNA 2: TGGTGGCTACGACGGGATT

These binders were tested against T1, RBFOX1 RRM (assay: EMSA; HiTS-Eq, 1 nM pool, 10 min; buffer printed only for the single-RNA assays: 10 mM Tris pH 7.5, 150 mM NaCl, 3.4 mM EDTA, 0.001% NP-40, 30 C). Conditions: tags: His6 N-terminal (pET28a); label: 5' 32P.
How it was run: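 Purified RbFox RRM (wild type or mutant) was equilibrated for 10 min in 50 µL with 1 nM of a 5′-radiolabelled pool of RNA with 7 randomized nucleotides, its flanks annealed to DNA oligonucleotides, across increasing protein concentrations. Free RNA was separated by 8% native PAGE, excised, reverse-transcribed, PCR-barcoded and sequenced on an Illumina HiSeq 2500. Relative association constants came from read-count changes of each variant against the control reaction, normalised to the cognate motif.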

Compared with B1, B2 is lower in binding signal: 0.00766 KA relative to UGCAUGU for the first, 0.0076 KA relative to UGCAUGU for the second.

Compared with B3, B4 is higher in binding signal: 0.00477 KA relative to UGCAUGU for the first, 0.00901 KA relative to UGCAUGU for the second.

First: B5
Second: B6
The binding signal of the first is lower: 0.0113 KA relative to UGCAUGU for the first, 0.0139 KA relative to UGCAUGU for the second.

First: B7
Second: B8
The binding signal of the first is lower: 0.00453 KA relative to UGCAUGU for the first, 0.0088 KA relative to UGCAUGU for the second.

First: B9
Second: B10
The binding signal of the first is lower: 0.00216 KA relative to UGCAUGU for the first, 0.01 KA relative to UGCAUGU for the second.

First: B11
Second: B12
The binding signal of the first is lower: 0.00126 KA relative to UGCAUGU for the first, 0.0399 KA relative to UGCAUGU for the second.

First: B13
Second: B14
The binding signal of the first is lower: 0.00274 KA relative to UGCAUGU for the first, 0.0128 KA relative to UGCAUGU for the second.

First: B15
Second: B16
The binding signal of the first is lower: 0.00524 KA relative to UGCAUGU for the first, 0.0173 KA relative to UGCAUGU for the second.

Compared with B17, B18 is higher in binding signal: 0.00339 KA relative to UGCAUGU for the first, 0.0125 KA relative to UGCAUGU for the second.

Compared with B19, B20 is lower in binding signal: 0.00626 KA relative to UGCAUGU for the first, 0.00599 KA relative to UGCAUGU for the second.
